We go through one molecule from patent US20110152173A1 (EMERGENT PRODUCT DEVELOPMENT SEATTLE, published 2011).

The target in one experiment is T1, human TWEAK (human, UniProt O43508 93-249, limits assumed).
T1 sequence (looked up): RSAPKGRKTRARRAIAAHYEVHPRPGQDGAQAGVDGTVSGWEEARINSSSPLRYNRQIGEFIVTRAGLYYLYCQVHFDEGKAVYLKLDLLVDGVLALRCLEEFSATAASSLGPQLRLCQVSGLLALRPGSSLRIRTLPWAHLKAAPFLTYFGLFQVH
The experiment can be described thus: ELISA: plate-coated ligand, Xceptor detected with HRP anti-human IgG-Fc. On the procedure:
(§1) Mouse and human ligands (R&D Systems, Minnesota, MN) were added to wells of a 96-well plate at a concentration of 1 μg/ml in PBS (100 μl/well). Plates were incubated at 4° C. overnight. After washing five times with PBS-T, 250 μl Blocking Buffer (PBS-T with 3% BSA) was added to each well, and the plate covered and incubated at room temperature (RT) for 2 hours. Serial three fold dilutions of xceptors were made in Working Buffer (PBS-T with 1% BSA) starting at 300 ng/ml. As a negative control, an irrelevant xceptor was used. The plate was incubated at RT for 1 hour. After washing five times with PBS-T, 100 μl per well of HRP-conjugated anti-human IgG-Fc (1:5000 in Working buffer) was added, the plate covered, and incubated at RT for 1 hour. After washing five times with PBS-T, 100 µl of Quant-Blu substrate (Pierce, Rockford, Ill.) was added to each well. The plate was incubated at RT for 10-30 minutes, and fluorescence measured at 325/420 nm.

Another experiment has as its target T2, mouse TWEAK (mouse, UniProt O54907 105-249, limits assumed).
T2 sequence (looked up): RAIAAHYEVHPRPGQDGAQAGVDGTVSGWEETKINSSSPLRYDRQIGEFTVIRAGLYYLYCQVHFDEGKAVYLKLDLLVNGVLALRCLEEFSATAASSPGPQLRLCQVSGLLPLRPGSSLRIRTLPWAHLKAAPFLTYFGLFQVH
The experiment is described as above. The protocol:
as §1

B1: Xceptor comprising a TNFRSF1B ectodomain and a TWEAKR ectodomain (Fc fusion)
chain: LPAQVAFTPYAPEPGSTCRLREYYDQTAQMCCSKCSPGQHAKVFCTKTSDTVCDSCEDSTYTQLWNWVPECLSCGSRCSSDQVETQACTREQNRICTCRPGWYCALSKQEGCRLCAPLRKCRPGFGVARPGTETSDVVCKPCAPGTFSNTTSSTDICRPHQICNVVAIPGNASMDAVCTSTSPTRSMAPGAVHLPQPVSTRSQHTQPTPEPSTAPSTSFLLPMGPSPPAEGSTGDTGEPKSSDKTHTCPPCPAPEAAGAPSVFLFPPKPKDTLMISRTPEVTCVVVDVSHEDPEVKFNWYVDGVEVHNAKTKPREEQYNSTYRVVSVLTVLHQDWLNGKAYACAVSNKALPAPIEKTISKAKGQPREPQVYTLPPSRDELTKNQVSLTCLVKGFYPSDIAVEWESNGQPENNYKTTPPVLDSDGSFFLYSKLTVDKSRWQQGNVFSCSVMHEALHNHYTQKSLSLSPGQRHNNSSLNTGTQMAGHSPNS[left out - about 60 residues]
notes: also called TNFR × TWEAKR
As for B1, the binding result with human TWEAK and in the experiment with mouse TWEAK was “binds” throughout.
